These results are taken from the RNAGym collection of RNA variant scans (doi:10.1101/gad.245936.114).

This sample is rich in variants without activity.

The chains are these.
B1: tRNA (parent)
chain: CUCUCGGUAGCCAAGUUGGUUUAAGGCGCAAGACUUUAAUUUAUCACUACGAAAUCUUGAGAUCGGGCGUUCGACUCGCCCCCGGGAGAUUUUUUCCUCGAGCAA

In the data set the parent is B1. The data set is described as follows: nonsense suppression (GFP-seq) (ratio to wild type); higher = more function; SUP4oc tRNA, yeast GFP reporter sort-seq. The procedure, abridged:
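Raffinose/galactose medium with 80 mg/L adenine was used to grow yeast carrying genome-integrated tRNA variants (~3% random-mutation library), RFP, and a galactose-driven GFP ochre reporter. Cells went into GFP/RFP bins, which were Illumina-sequenced, and variants with ≥100 reads and ≥30 cells were scored. Nonsense suppression (GFPSEQ) is the per-bin median GFP/RFP weighted by estimated cell share and expressed relative to the unmutated parent tRNA.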
Regarding CUCUCGGUAGCCAAGUUGGUUUAAGGCGCAAGACUUUAAUUUAUCACUACGAAAUCUGGAGAUCGGGCGUCCGACUCGCCCCCGGGAGAUUUUUUCCUCGAGCAA [U58G U71C], the nonsense suppression was at most 0.026. As for CUCUCAGAAGCCAAGUUGGUUUAAGGCGCAAGACUUUAAUUUAUCACUACGAAAUCUUGAGAUCGGGCGUUCGACUCGCCCCCGGGAGAUUUUUUCCUCGAGCAA [G6A U8A], the figure is at most 0.026; as for CUCUCGGCAGCCAAGUUGGUUUAAGGCGCAAGACUUUAAUUUAUCACUACGAAAUCUUCAGAUCGGGCGUUCGACUCGCCCCCGGGAGAUUUUUUCCUCGAGCAA [U8C G59C], at most 0.026; as for CUCUCGGUAGCCAAGUUGGUUUACGGCGCAAGACUUUAAUUUAUCACUACGAAAUCUUGAGAUCGGGCGUUCGAUUCGCCCCCGGGAGAUUUUUUCCUCGAGCAA [A24C C75U], 1.18. As for GUCUCGGUAGCCAAGUUGGUUUAAGGAGCAAGACUUUAAUUUAUCACUACGAAAGCUUGAGAUCGGGCGUUCGACUCGCCCCCGGGAGAUUUUUUCCUCGAGCAA [C1G C27A U55G], the figure is at most 0.026; as for CUCUCGGAAGCCAAGUUGAUUUAAGGCGCAAGACUUUAAUUUAUCACUACGAAAUCUUGAGAUCGGACGUUCGACUCGCCCCUGGGAGAUUUUUUCCUCGAGCAA [U8A G19A G67A C83U], at most 0.026; as for CUGUCGGUAGCCAAGUUGGUUUAAGGCGCAUGACUUUAAUUUAUCACUACGAAAUCUUGAGAUCGGGCGUUGGACUCGCCCCCGGGAGAUUUUUUCCUCGAGCAA [C3G A31U C72G], at most 0.026.

Turning to CUCUCGGUAGCCAAGUUGGUUUUACGCGCAAGACUUUAAUUUAUCACUACGAAAUCUUGAGAUCGGGCCUUCGACUCGCCCCCGGGAGAUUUUUUCCUCGAGCAA [A23U G25C G69C], the nonsense suppression is at most 0.026. As to CUCUCGGUAGCCAAGUUGGUUUAAGGCGCAAGACUUUAAUUUAUCACUACGAAAUCGUGGGAUCGGGCGUUCGACUCGACCCCCGGAGAUUUUUUCCUCGAGCAA [U57G A60G C79A G84C], the nonsense suppression is at most 0.026. CUCUCGGUAGCCAAGUUGGUUUAAGGCGCAAGACUUUAAUUUAUCACUACGAAAUCCUGAGAUCGGGCUUUCGACUCGCCCCCGGGAGAUUUUUUCCUCGAGCAA [U57C G69U]: the nonsense suppression was at most 0.026. For the variant CUCUCGGUAGCCAAGUUGGUUUAAGGCGCAAGACUUUAAUUUAUCACUACGAAAUCUUGAGAUCGGGCAUUCGACUCGCCCCCGGGUGAUUUUUUCCUCGAGCAA [G69A A87U], the nonsense suppression was at most 0.026. In the case of CUCUCGGUAUCCAAUUUGGUUUAAGGCGCAAGACUUUAAUUUAUCACUACGAAAUCUUGAGAUCUGGCGUUAUACUCGCCCCCGGGAGAUUUUUUCCUCGAGCAA [G10U G15U G65U C72A G73U], the nonsense suppression is at most 0.026.

Regarding CUCUCGGUAGCCAAGUUGGUUUAAGGCGCAAGACUUUAAUUUAUCACUACGAAAUCUGGAGAUCGGGCGCUCGACUCGCCCCCGGGAGAUUUUUUCCUCGAGCAA [U58G U70C], the nonsense suppression was at most 0.026. Consider CUCUCGGUAGCCAAGUUGGUUUAAGGCGCAAGACUUUAAUUUAUCACUACGAAAUCUUGAGAUCGGUCGCUCGACUCGCCCCCGGGAGAUUUUUUCCUCGAGCAA [G67U U70C], for which the nonsense suppression is at most 0.026. As for CUCUCGGCAGCCAAGUUGGGUUAAGGCGCAAGACUUUAAUUUAUCACUACGAAAUCUUGAGAUCGGGCGUUCGGCUCGCCCCCGGGAGAUUUUUUCCUCGAGCAA [U8C U20G A74G], the figure is at most 0.026. Under CUCUCGGUAGCCAAGUUGGUUUACGGCGCAAGACUUUAAUUUAUCACUACGAAAUCUUGAGGUCGGGCGUUCGACUCGCCCCCGGGAGAUUUUUUCCUCGAGCAA [A24C A62G] stands at most 0.026; under CUCUCGGUAGCCAAGUUAGUUUAAGGCGCAAGACUUUAAUUUAUCACUACGAAAUCUUGAGAUGGGGCGUUCGACUCGCCCCCGGGAGAUUUUUUCCUCGAGCAA [G18A C64G], at most 0.026; under CUCUCGGUAGCCAUGUUGGUUUAAGGCGCAAGACUUUAAUUUAUCACUACGAAAUCUUGAGAUCGGGCGUGCGACUCGCCCCCGGGAGAUUUUUUCCUCGAGCAA [A14U U71G], at most 0.026. Under CUCUCGGUAGCCAAGUUGGUUUAAGGCGCAAGAGUUUAAUUUAUCACUACGAAAUCUUGAGAUAGGGCGUUCGACGCGCCCCCGGGAGAUUUUUUCCUCGAGCAA [C34G C64A U76G] stands at most 0.026; under CUCUCGGUAGCCAAGUUGGCUUAAGGCGCGAGACUUUAAUUUAUCACUACGAAAUCUUGAGUUCGGGCGUUCGACUCGCCCCCGGGAGAUUUUUUCCUCGAGCAA [U20C A30G A62U], at most 0.026; under CUCUCGGAAGCCAAGUUGGUAUGAGGUGCAAGACUUUAAUUUAUCACUACGAAAUCUUGAGAUCGGGCGUUCGACUCGCCCCCGGGAGAUUUUUUCCUCGAGCAA [U8A U21A A23G C27U], at most 0.026.

For the variant CUCUCGGAAGCCAAGUUGGUUUCAGGCGCAAGACUUUAAUUUAUCACUACGAAAUCUUGAGAUCGGGCGUUCGACUCGCCCCCGGGAGAUUUUUUCCUCGAGCAA [U8A A23C], the nonsense suppression was at most 0.026. Under CACUCGGUAGCCAAGUUGGUUUAAGGCGCAAGACUUUAAUUUAUCACUACGAAACCUUGAGAUCGGGCGUUCGACUCGCCCCCGGGAGAUUUUUUCCUCGAGCAA [U2A U55C] stands 0.0451; under CUCUCGGUAUCCAAGUUGGUUUAAGGCGCGAGACUUUAAUUUAUCACUACGAAAUCUUGAGAUCGGGCGUUCGACUUGCCCCCGGGAGAUUUUUUCCUCGAGCAA [G10U A30G C77U], at most 0.026; under CUCCCGGUAGCCAAGUUGUUUUAAGGCGCAAGACUUUAAUUUAUCACUACGAAAUCUUGAGAUCGUGCGUUCGACUCGCCCCCGGGAGAUUUUUUCCUCGAGCAA [U4C G19U G66U], at most 0.026. Under CUCUCGGUAGCCAAGUCGGUUUAAGGCGCAAGACUUUAAUUUAUCACUACGAAACCUUAAGAUCGCGCGUUCGACUCGCCCCCGGGAGAUUUUUUCCUCGAGCAA [U17C U55C G59A G66C] stands at most 0.026; under CUCUCGGUAGCCAAGUUGGUUUGAGGCGCAAGACUUUAAUUUAUCACUACGAAAUCUUGAGUUCGGGAGUUCGACUCGCCCCCGGGAGAUUUUUUCCUCGAGCAA [A23G A62U C68A], at most 0.026.
